Source: PMC12234955 (Nature Communications, 2025)

Target: MB52 (megabody: NB52 VHH fused to the circular permutated extracellular adhesin domain of Helicobacter pylori …)
Assay: cryo-EM structure

B1: Human LGR4 ([…]), C-terminal Flag tag (receptor)
chain: not shown
  binding result: binds
